# PubChem BioAssay (Tox21)
# This list was built around the results that the source calls inconclusive (neither active nor inactive); the mix of calls is not that of the screen. For some assays here: A potency beside an inconclusive call is a rough fit, not a confirmed value. Activity calls are given as the source filed them. Unless noted, the call rests on the fitted dose curve.
# Legend:
# [1] = target: Peroxisome proliferator-activated receptor gamma (Homo sapiens) (UniProt P37231); test: qHTS assay to identify small molecule antagonists of the peroxisome proliferator-activated receptor gamma (PPARg) signaling pathway (AID 743191); settings: HEK293H PPARg-UAS-bla, beta-lactamase ratio, antagonist, 17 h; ratio activity, negative = inhibition: at 62.6 µM (top of the series) unless noted; further: nearly all actives have a fitted effect of over 30% in size; further: potency means the concentration at half of the fitted maximal effect; on ratio activity, negative = inhibition: on the % scale 0 is the no-effect control and ±100 the full control effect
# Sequence of UniProt P37231 (P37231 whole entry, looked up): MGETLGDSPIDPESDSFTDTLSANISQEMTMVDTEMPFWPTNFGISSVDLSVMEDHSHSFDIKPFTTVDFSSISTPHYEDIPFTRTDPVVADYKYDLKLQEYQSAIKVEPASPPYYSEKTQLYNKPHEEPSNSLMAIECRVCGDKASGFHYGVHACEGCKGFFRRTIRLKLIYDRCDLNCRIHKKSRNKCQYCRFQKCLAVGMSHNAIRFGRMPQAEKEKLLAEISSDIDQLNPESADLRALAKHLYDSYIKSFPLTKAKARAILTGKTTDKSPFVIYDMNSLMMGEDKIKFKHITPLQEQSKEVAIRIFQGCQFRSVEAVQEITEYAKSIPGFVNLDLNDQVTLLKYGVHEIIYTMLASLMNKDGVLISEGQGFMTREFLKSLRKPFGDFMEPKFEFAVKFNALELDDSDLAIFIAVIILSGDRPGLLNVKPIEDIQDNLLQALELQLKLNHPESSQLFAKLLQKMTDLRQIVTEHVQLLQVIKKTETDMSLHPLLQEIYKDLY
# Summary of the method: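 GeneBLAzer PPARg UAS-bla HEK293H cells carrying a UAS-driven beta-lactamase reporter were plated at 3000 cells/well, preincubated 5 h at 37C, then given compound for 17 h at 37C; LiveBLAzer B/G FRET substrate was read after 1 h at room temperature.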
# [2] = qHTS assay for small molecule agonists of the antioxidant response element (ARE) signaling pathway (AID 743202; active means well fitted activation curve with a large enough effect in the signal ratio in the repeat runs, not every such curve was filed as active; inconclusive means weak or mixed curves, or effect the other way; inactive means no such curve, though single readings can be large or run the other way; the % refers to the signal ratio; further: potency means the concentration at half of the fitted maximal effect); settings: HepG2 ARE-bla reporter, beta-lactamase FRET, 16 h; activation: at 73.3 µM (top of the series) unless noted
# Summary of the method: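 Following a 16 h, 37 C exposure of reporter HepG2 cells (ARE-driven beta-lactamase, 2,000 cells/well) to compounds, FRET substrate was applied for 2 h at room temperature and fluorescence intensity recorded.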
# [3] = target: Vitamin D3 receptor (Homo sapiens) (UniProt P11473); test: qHTS assay to identify small molecule antagonists of the vitamin D receptor (VDR) signaling pathway (AID 743223; active means well fitted inhibition curve with a large enough effect in the signal ratio in the repeat runs, not every such curve was filed as active; inconclusive means weak or mixed curves, or effect the other way; inactive means no such curve, though single readings can be large or run the other way; the % refers to the signal ratio; further: potency means the concentration at half of the fitted maximal effect); settings: VDR-UAS-bla HEK293T, beta-lactamase FRET ratio, 16 h; activity change, negative = inhibition: at 61 µM (top of the series) unless noted
# Sequence of UniProt P11473 (P11473 whole entry, looked up): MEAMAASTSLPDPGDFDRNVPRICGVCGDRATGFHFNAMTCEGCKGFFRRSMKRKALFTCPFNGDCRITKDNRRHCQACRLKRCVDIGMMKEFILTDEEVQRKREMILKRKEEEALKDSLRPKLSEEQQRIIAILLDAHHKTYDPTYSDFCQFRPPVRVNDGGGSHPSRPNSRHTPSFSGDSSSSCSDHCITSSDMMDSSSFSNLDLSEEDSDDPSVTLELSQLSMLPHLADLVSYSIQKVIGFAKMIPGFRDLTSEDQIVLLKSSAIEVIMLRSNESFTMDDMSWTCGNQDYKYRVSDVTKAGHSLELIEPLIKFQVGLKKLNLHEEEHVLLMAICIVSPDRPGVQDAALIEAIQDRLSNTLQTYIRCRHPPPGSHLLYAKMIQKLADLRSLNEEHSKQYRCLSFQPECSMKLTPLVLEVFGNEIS
# Summary of the method: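 Beta-lactamase activity in VDR-bla cells is measured by FRET substrate fluorescence (2 h, room temperature) after cells spend 16 h at 37C with test compound and 3 nM final 1alpha,25-dihydroxyvitamin D3.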
# [4] = qHTS assay to identify small molecule agonists of the NFkB signaling pathway - cell viability counter screen (AID 1159515); further: nearly all actives have a fitted effect of over 55% in size; further: potency means the concentration at half of the fitted maximal effect
# Summary of the method: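 Counter screen run alongside the NFkB-bla agonist assay: ME-180 reporter cells exposed to compounds for 5 hr, then lysed with CellTiter-Glo in the same wells. Luminescence, read after 30 min, reflects viable cells.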
# [5] = qHTS assay to identify small molecule antagonists of the peroxisome proliferator-activated receptor delta (PPARd) signaling pathway - cell viability counter screen (AID 743213; active means well fitted curve in the direction sought with a large enough effect in the repeat runs; inconclusive means weak or mixed curves; inactive means no such curve, though single readings can be large; an effect the other way counts as inactive or inconclusive; further: nearly all actives have a fitted effect of over 50% in size; further: potency means the concentration at half of the fitted maximal effect); settings: PPARd-bla HEK293H viability, CellTiter-Glo luminescence, 17 h; viability change, negative = cytotoxic: at 62 µM (top of the series) unless noted
# Summary of the method: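 PPARd-bla HEK293H cells (3000/well) got compound plus 300 nM L165041 agonist for 17 h at 37 C. Viability in the same wells came from CellTiter-Glo luminescence after 30 min at room temperature.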
# [6] = target: Peroxisome proliferator-activated receptor delta (Homo sapiens) (UniProt Q03181); test: qHTS assay to identify small molecule antagonists of the peroxisome proliferator-activated receptor delta (PPARd) signaling pathway (AID 743215; active means well fitted inhibition curve with a large enough effect in the signal ratio in the repeat runs, not every such curve was filed as active; inconclusive means weak or mixed curves, or effect the other way; inactive means no such curve, though single readings can be large or run the other way; the % refers to the signal ratio;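 further: cells stimulated with agonist L165041 at 300 nM final during compound exposure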; further: potency means the concentration at half of the fitted maximal effect; on ratio activity, negative = inhibition: on the % scale 0 is the no-effect control and ±100 the full control effect); settings: HEK293H PPARd-UAS-bla, beta-lactamase FRET ratio, antagonist, 17 h; ratio activity, negative = inhibition: at 62 µM (top of the series) unless noted
# Sequence of UniProt Q03181 (Q03181 whole entry, looked up): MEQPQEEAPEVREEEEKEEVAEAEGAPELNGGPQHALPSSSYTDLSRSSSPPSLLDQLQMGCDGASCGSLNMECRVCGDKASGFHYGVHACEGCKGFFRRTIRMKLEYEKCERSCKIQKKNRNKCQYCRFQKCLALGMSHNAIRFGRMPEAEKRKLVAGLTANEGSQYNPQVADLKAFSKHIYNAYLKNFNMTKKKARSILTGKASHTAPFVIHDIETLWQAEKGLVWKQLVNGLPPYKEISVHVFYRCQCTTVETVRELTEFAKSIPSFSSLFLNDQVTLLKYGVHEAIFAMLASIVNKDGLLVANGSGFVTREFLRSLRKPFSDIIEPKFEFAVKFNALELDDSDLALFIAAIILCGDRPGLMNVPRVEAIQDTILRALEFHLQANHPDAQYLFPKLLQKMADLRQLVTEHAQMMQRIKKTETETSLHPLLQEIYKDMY
# Summary of the method: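 Screen format: qHTS, antagonist mode. HEK293H PPARd-bla cells received compound and 300 nM L165041 (final), 17 h, 37 C. Beta-lactamase detected via FRET substrate fluorescence, 2 h, room temperature.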
# [7] = target: Peroxisome proliferator-activated receptor delta (Homo sapiens) (UniProt Q03181); test: qHTS assay to identify small molecule agonists of the peroxisome proliferator-activated receptor delta (PPARd) signaling pathway (AID 743212); settings: HEK293H PPARd-UAS-bla, beta-lactamase FRET ratio, 17 h; activation: at 62.6 µM (top of the series) unless noted; further: potency means the concentration at half of the fitted maximal effect
# Summary of the method: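 Beta-lactamase reporter read by fluorescence (LiveBLAzer B/G FRET, 2 h, room temperature). Test agents, in DMSO, incubated at 37 C with PPARd-bla HEK293H cells.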
# [8] = target: Bile acid receptor (Homo sapiens) (UniProt Q96RI1); test: qHTS assay to identify small molecule antagonists of the farnesoid-X-receptor (FXR) signaling pathway (AID 743217; active means well fitted inhibition curve with a large enough effect in the signal ratio in the repeat runs, not every such curve was filed as active; inconclusive means weak or mixed curves, or effect the other way; inactive means no such curve, though single readings can be large or run the other way; the % refers to the signal ratio; further: on the % scale 0 is the no-effect control and ±100 the full control effect); settings: HEK293T FXR-UAS-bla, beta-lactamase ratio, CDCA-stimulated, 16 h; activity change, negative = inhibition: at 62.6 µM (top of the series) unless noted
# Sequence of UniProt Q96RI1 (Q96RI1 whole entry, looked up): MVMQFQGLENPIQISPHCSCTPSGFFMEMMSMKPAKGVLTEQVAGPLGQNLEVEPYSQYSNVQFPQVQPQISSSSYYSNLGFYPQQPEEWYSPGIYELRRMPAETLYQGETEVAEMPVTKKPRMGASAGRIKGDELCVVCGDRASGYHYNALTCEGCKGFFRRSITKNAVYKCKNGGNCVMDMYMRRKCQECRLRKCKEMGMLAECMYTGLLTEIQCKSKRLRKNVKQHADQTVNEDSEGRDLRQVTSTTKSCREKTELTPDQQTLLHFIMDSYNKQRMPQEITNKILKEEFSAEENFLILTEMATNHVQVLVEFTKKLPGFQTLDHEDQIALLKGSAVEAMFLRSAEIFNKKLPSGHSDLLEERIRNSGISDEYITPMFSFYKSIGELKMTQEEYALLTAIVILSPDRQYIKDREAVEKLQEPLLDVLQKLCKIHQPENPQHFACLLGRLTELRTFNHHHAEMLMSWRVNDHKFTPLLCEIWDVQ
# Summary of the method: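 Quantitative HTS, beta-lactamase reporter format: FXR-UAS-bla HEK 293T cells co-treated 16 h at 37 °C with compounds and 50 uM final chenodeoxycholic acid, then read by B/G FRET fluorescence.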
# [9] = qHTS assay to identify small molecule agonists of the farnesoid-X-receptor (FXR) signaling pathway - cell viability counter screen (AID 743218; active means well fitted curve in the direction sought with a large enough effect in the repeat runs; inconclusive means weak or mixed curves; inactive means no such curve, though single readings can be large; an effect the other way counts as inactive or inconclusive; further: nearly all actives have a fitted effect of over 45% in size; further: potency means the concentration at half of the fitted maximal effect); settings: FXR-bla HEK293T viability, CellTiter-Glo luminescence, 16 h; viability change, negative = cytotoxic: at 62.6 µM (top of the series) unless noted
# Summary of the method: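 Same-well cytotoxicity check on FXR-UAS-bla HEK 293T cells: 5 h attachment, 16 h compound at 37 C, CellTiter-Glo luminescence read at room temperature after 30 min.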
# [10] = qHTS assay to identify small molecule agonists of the vitamin D receptor (VDR) signaling pathway - cell viability counter screen (AID 743224; active means well fitted curve in the direction sought with a large enough effect in the repeat runs; inconclusive means weak or mixed curves; inactive means no such curve, though single readings can be large; an effect the other way counts as inactive or inconclusive; further: nearly all actives have a fitted effect of over 50% in size; further: potency means the concentration at half of the fitted maximal effect)
# Summary of the method: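 Counter screen for cytotoxicity: VDR-bla cells at 2,000 cells/well, 16 h compound exposure, then CellTiter-Glo luminescence after the beta-lactamase measurement.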
# [11] = qHTS assay to identify small molecule antagonists of the vitamin D receptor (VDR) signaling pathway - cell viability counter screen (AID 743225; active means well fitted curve in the direction sought with a large enough effect in the repeat runs; inconclusive means weak or mixed curves; inactive means no such curve, though single readings can be large; an effect the other way counts as inactive or inconclusive; further: potency means the concentration at half of the fitted maximal effect; nearly all actives have a fitted effect of over 50% in size); settings: VDR-bla HEK293T viability, CellTiter-Glo luminescence, 16 h; viability change, negative = cytotoxic: at 61 µM (top of the series) unless noted
# Summary of the method: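 In this counter screen, VDR-bla HEK 293T cells receive test compound plus 3 nM final calcitriol for 16 h at 37C. Room-temperature steps of 2 h with the beta-lactamase substrate, then 30 min with CellTiter-Glo, precede the luminescence read.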
# [12] = target: Vitamin D3 receptor (Homo sapiens) (UniProt P11473); test: qHTS assay to identify small molecule agonists of the vitamin D receptor (VDR) signaling pathway (AID 743222); settings: HEK293T VDR-UAS-bla, beta-lactamase FRET ratio, 16 h; activation: at 63.5 µM (top of the series) unless noted; further: potency means the concentration at half of the fitted maximal effect
# Summary of the method: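 Using LiveBLAzer B/G FRET detection, agonism was scored in VDR-bla cells exposed overnight (16 h, 37C) to DMSO-dissolved compounds; substrate incubation was 2 h at room temperature.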
# [13] = qHTS assay for small molecule agonists of the antioxidant response element (ARE) signaling pathway - cell viability counter screen (AID 743203); further: potency means the concentration at half of the fitted maximal effect; nearly all actives have a fitted effect of over 55% in size
# Summary of the method: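 Parallel cytotoxicity read-out for the ARE-bla screen: HepG2 reporter cells, 16 hrs with compounds, then CellTiter-Glo luminescence.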
# [14] = target: Bile acid receptor (Homo sapiens) (UniProt Q96RI1); test: qHTS assay to identify small molecule agonists of the farnesoid-X-receptor (FXR) signaling pathway (AID 743220; active means well fitted activation curve with a large enough effect in the signal ratio in the repeat runs, not every such curve was filed as active; inconclusive means weak or mixed curves, or effect the other way; the % refers to the signal ratio; further: on the % scale 0 is the no-effect control and ±100 the full control effect); settings: HEK293T FXR-UAS-bla, beta-lactamase FRET ratio, 16 h; activation: at 62.6 µM (top of the series) unless noted
# Summary of the method: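 FXR-UAS-bla HEK 293T cells carrying a UAS-driven beta-lactamase reporter were plated for 5 h at 37C/5% CO2, then exposed to DMSO-dissolved Tox21 10K compounds for 16 h at 37C. A LiveBLAzer B/G FRET substrate was loaded for 2 h at room temperature before fluorescence reading.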
# [15] = qHTS assay for small molecule activators of the heat shock response signaling pathway - cell viability counter screen (AID 743209; active means well fitted curve in the direction sought with a large enough effect in the repeat runs; inconclusive means weak or mixed curves; inactive means no such curve, though single readings can be large; an effect the other way counts as inactive or inconclusive; further: potency means the concentration at half of the fitted maximal effect; nearly all actives have a fitted effect of over 50% in size); settings: HSE-bla HeLa viability, CellTiter-Glo luminescence, 5 h; activity change, negative = cytotoxicity: at 62.6 µM (top of the series) unless noted
# Summary of the method: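 To flag cytotoxic compounds, HSE-bla HeLa cells plated at 1500 cells/well were dosed for 5 h at 37 C, followed by the reporter FRET read and then CellTiter-Glo, with luminescence recorded 30 min after reagent addition.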
# [16] = qHTS assay to identify small molecule antagonists of the peroxisome proliferator-activated receptor gamma (PPARg) signaling pathway - cell viability counter screen (AID 743194; active means well fitted curve in the direction sought with a large enough effect in the repeat runs; inconclusive means weak or mixed curves; inactive means no such curve, though single readings can be large; an effect the other way counts as inactive or inconclusive; further: potency means the concentration at half of the fitted maximal effect; nearly all actives have a fitted effect of over 55% in size); settings: PPARg-bla HEK293H viability, CellTiter-Glo luminescence, 17 h; Potency: co-treated with 50 nM rosiglitazone unless noted; activity change, negative = cytotoxicity: at 62.6 µM (top of the series), co-treated with 50 nM rosiglitazone unless noted
# Summary of the method: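 PPARg-UAS-bla HEK293H cells were plated, rested 5 h at 37 C, then treated with compounds plus rosiglitazone (50 nM final) for 17 h at 37 C; viability was then read by CellTiter-Glo luminescence after 30 min at room temperature.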
# Tags describe the fitted curve by direction and shape or compound fluorescence and quenching.
smiles,measurement,setting,value
OCCSSCCO,"ratio activity, negative = inhibition",[1],inconclusive: 0.019%
same,Potency,[2],"inconclusive: 68.6 µM [rising, single point]"
same,Potency,[3],inconclusive: 15.5 µM [activator]
same,Potency,[4],inactive
Cc1ccc(Cl)c(O)c1,"ratio activity, negative = inhibition",[1],inconclusive: 2.47%
same,Potency,[5],"inconclusive: 13.3 µM [cytotoxic, single point]"
same,Potency,[6],inactive
same,"activity change, negative = inhibition",[3],inconclusive: -29.8%
same,Potency,[4],inactive
CC(C)OS(C)(=O)=O,Potency,[1],inactive
same,Potency,[7],inactive
same,Potency,[8],inactive
same,Potency,[9],inactive
same,"activity change, negative = inhibition",[3],inconclusive: 30.6% [at 78.8 µM]
same,Potency,[4],"inconclusive: 55.4 µM [rising, single point]"
N#CC(C#N)=C(C#N)C#N,Potency,[1],inactive
same,Potency,[2],active: 7.17 µM
same,Potency,[5],"inconclusive: 1.14 µM [rising, full curve, poor fit]"
same,Potency,[10],inactive
same,Potency,[11],"inconclusive: 6.44 µM [cytotoxic, full curve, poor fit]"
same,Potency,[4],inactive
C[C@]12CC[C@H]3[C@@H](CCC4=CC(=O)CC[C@@]43C)[C@@H]1CC[C@@H]2O,"ratio activity, negative = inhibition",[1],inconclusive: 8.43%
same,Potency,[2],"inconclusive: 19.2 µM [rising, full curve]"
same,Potency,[7],"inconclusive: 19.4 µM [rising, partial curve]"
same,"ratio activity, negative = inhibition",[6],inconclusive: 19.7%
same,Potency,[9],"inconclusive: 21.7 µM [rising, full curve, poor fit]"
same,Potency,[12],"inconclusive: 21.7 µM [rising, partial curve]"
same,"activity change, negative = inhibition",[3],inconclusive: 26.8%
same,Potency,[4],"inconclusive: 54.6 µM [cytotoxic, partial curve, poor fit]"
CCCCN(CCCCO)N=O,Potency,[1],inactive
same,Potency,[13],"inconclusive: 24.3 µM [rising, full curve, poor fit]"
same,Potency,[6],inactive
same,Potency,[3],inactive
same,Potency,[4],inactive
FC(F)(F)c1cccc(C2=CCN(CCc3ccc4ccccc4c3)CC2)c1,Potency,[1],"inconclusive: 29.8 µM [activator, partial curve, poor fit]"
same,Potency,[2],"inconclusive: 21.1 µM [rising, partial curve]"
same,Potency,[6],"inconclusive: 13.3 µM [rising, partial curve, poor fit]"
same,Potency,[14],inactive
same,Potency,[10],"inconclusive: 33.5 µM [cytotoxic, single point]"
same,Potency,[4],"inconclusive: 26.8 µM [cytotoxic, partial curve, poor fit]"
CCOCCOC(C)=O,"ratio activity, negative = inhibition",[1],inconclusive: 17.9% [at 81.1 µM]
same,activation,[2],inconclusive: -17.9% [phenotype inactive]
same,Potency,[15],"inconclusive: 0.611 µM [cytotoxic, partial curve, poor fit]"
same,activation,[7],inconclusive: -7.75% [phenotype inactive]
same,"ratio activity, negative = inhibition",[6],inconclusive: 17% [at 80.4 µM]
same,Potency,[3],"inconclusive: 49 µM [fluorescent, partial curve, poor fit]"
same,Potency,[10],"inconclusive: 10.9 µM [rising, partial curve, poor fit]"
same,Potency,[11],"inconclusive: 0.0012 µM [rising, full curve]"
same,Potency,[4],"inconclusive: 3.47 µM [cytotoxic, partial curve, poor fit]"
N#C/C(N)=C(/N)C#N,"ratio activity, negative = inhibition",[1],inconclusive: -20.2%
same,Potency,[5],inactive
same,Potency,[8],inactive
same,Potency,[14],inactive
same,Potency,[4],"inconclusive: 53.3 µM [cytotoxic, partial curve, poor fit]"
O=S(=O)(O)F,Potency,[1],inactive
same,"activity change, negative = inhibition",[8],inconclusive: 8.96% [at 81.1 µM]
same,Potency,[9],"inconclusive: 0.0172 µM [rising, full curve, poor fit]"
same,Potency,[4],inactive
C[C@]12C=CC(=O)C=C1CC[C@@H]1[C@@H]2CC[C@@]2(C)[C@H]1CC[C@]2(C)O,"ratio activity, negative = inhibition",[1],inconclusive: -7.98%
same,Potency,[2],"inconclusive: 13.3 µM [rising, partial curve]"
same,Potency,[7],"inconclusive: 26.6 µM [rising, partial curve]"
same,Potency,[5],"inconclusive: 15 µM [rising, partial curve, poor fit]"
same,"ratio activity, negative = inhibition",[6],inconclusive: -6.77% [fluorescent]
same,activation,[12],inconclusive: 21.7%
same,Potency,[3],inactive
same,Potency,[4],inactive
CCc1cnc(C2=NC(C)(C(C)C)C(=O)N2)c(C(=O)O)c1 (centres undefined),Potency,[16],"inconclusive: 0.0847 µM [rising, partial curve, poor fit]"
same,Potency,[5],inactive
same,Potency,[3],inactive
same,Potency,[4],"inconclusive: 0.0012 µM [rising, full curve, poor fit]"
NC(=O)C(Cl)(Cl)Cl,activation,[2],inconclusive: 26.1% [at 94.8 µM]
same,Potency,[8],inactive
same,Potency,[3],inactive
same,Potency,[4],"inconclusive: 61.9 µM [rising, partial curve, poor fit]"
